The list shows a part of the results.
Columns and labels:
Experiment in all cases: glycan array binding signal (z-score within array); higher = stronger binding
Conditions in all cases: glycan notation: IUPAC condensed, linker removed
[1] = biological target: Neu5Ac(a2-6)Gal(b1-3)GlcNAc(b1-3)[Gal(b1-4)GlcNAc(b1-6)]Gal(b1-4)Glc
Summary of the method: (§1)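 The binding signal is a Z-score computed within each array. Data were drawn from 3228 arrays in the Consortium for Functional Glycomics database, restricted to those with a known protein sequence. Scores were averaged over arrays of the same protein sequence at different concentrations or buffers, and over linkers, and negative values can be taken as non-binding.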

Neu5Ac(a2-6)Gal(b1-4)Glc = biological target: Neu5Ac(a2-6)Gal(b1-4)Glc
Summary of the method: as §1

[2] = biological target: Neu5Ac(a2-6)Gal(b1-4)GlcNAc
Summary of the method: as §1

[3] = biological target: Neu5Ac(a2-6)Gal(b1-4)GlcNAc(b1-2)Man
Summary of the method: as §1

[4] = biological target: Neu5Ac(a2-6)Gal(b1-4)GlcNAc(b1-2)Man(a1-3)Man(b1-4)GlcNAc(b1-4)GlcNAc
Summary of the method: as §1

[5] = biological target: Neu5Ac(a2-6)Gal(b1-4)GlcNAc(b1-2)Man(a1-3)[Gal(b1-4)GlcNAc(b1-2)Man(a1-6)]Man(b1-4)GlcNAc(b1-4)GlcNAc
Summary of the method: as §1

[6] = biological target: Neu5Ac(a2-6)Gal(b1-4)GlcNAc(b1-2)Man(a1-3)[GlcNAc(b1-2)Man(a1-6)]Man(b1-4)GlcNAc(b1-4)GlcNAc
Summary of the method: as §1

[7] = biological target: Neu5Ac(a2-6)Gal(b1-4)GlcNAc(b1-2)Man(a1-3)[GlcNAc(b1-4)][Neu5Ac(a2-6)Gal(b1-4)GlcNAc(b1-2)Man(a1-6)]Man(b1-4)GlcNAc(b1-4)GlcNAc
Summary of the method: as §1

[8] = biological target: Neu5Ac(a2-6)Gal(b1-4)GlcNAc(b1-2)Man(a1-3)[Man(a1-6)]Man(b1-4)GlcNAc(b1-4)GlcNAc
Summary of the method: as §1

[9] = biological target: Neu5Ac(a2-6)Gal(b1-4)GlcNAc(b1-2)Man(a1-3)[Neu5Ac(a2-3)Gal(b1-4)GlcNAc(b1-2)Man(a1-6)]Man(b1-4)GlcNAc(b1-4)GlcNAc
Summary of the method: as §1

[10] = biological target: Neu5Ac(a2-6)Gal(b1-4)GlcNAc(b1-2)Man(a1-3)[Neu5Ac(a2-6)Gal(b1-4)GlcNAc(b1-2)Man(a1-6)]Man(b1-4)GlcNAc(b1-4)GlcNAc
Summary of the method: as §1

[11] = biological target: Neu5Ac(a2-6)Gal(b1-4)GlcNAc(b1-2)Man(a1-3)[Neu5Ac(a2-6)Gal(b1-4)GlcNAc(b1-2)Man(a1-6)]Man(b1-4)GlcNAc(b1-4)[Fuc(a1-6)]GlcNAc
Summary of the method: as §1

[12] = biological target: Neu5Ac(a2-6)Gal(b1-4)GlcNAc(b1-2)Man(a1-6)Man(b1-4)GlcNAc(b1-4)GlcNAc
Summary of the method: as §1

[13] = biological target: Neu5Ac(a2-6)Gal(b1-4)GlcNAc(b1-2)Man(a1-6)[Gal(b1-4)GlcNAc(b1-2)Man(a1-3)]Man(b1-4)GlcNAc(b1-4)GlcNAc
Summary of the method: as §1

[14] = biological target: Neu5Ac(a2-6)Gal(b1-4)GlcNAc(b1-2)Man(a1-6)[GlcNAc(b1-2)Man(a1-3)]Man(b1-4)GlcNAc(b1-4)GlcNAc
Summary of the method: as §1

[15] = biological target: Neu5Ac(a2-6)Gal(b1-4)GlcNAc(b1-2)Man(a1-6)[Man(a1-3)]Man(b1-4)GlcNAc(b1-4)GlcNAc
Summary of the method: as §1

[16] = biological target: Neu5Ac(a2-6)Gal(b1-4)GlcNAc(b1-2)[Neu5Ac(a2-6)Gal(b1-4)GlcNAc(b1-4)]Man(a1-3)[GlcNAc(b1-4)][Neu5Ac(a2-6)Gal(b1-4)GlcNAc(b1-2)[Neu5Ac(a2-6)Gal(b1-4)GlcNAc(b1-6)]Man(a1-6)]Man(b1-4)GlcNAc(b1-4)GlcNAc
Summary of the method: as §1

[17] = biological target: Neu5Ac(a2-6)Gal(b1-4)GlcNAc(b1-2)[Neu5Ac(a2-6)Gal(b1-4)GlcNAc(b1-4)]Man(a1-3)[GlcNAc(b1-4)][Neu5Ac(a2-6)Gal(b1-4)GlcNAc(b1-4)Man(a1-6)]Man(b1-4)GlcNAc(b1-4)GlcNAc
Summary of the method: as §1

[18] = biological target: Neu5Ac(a2-6)Gal(b1-4)GlcNAc(b1-2)[Neu5Ac(a2-6)Gal(b1-4)GlcNAc(b1-6)]Man(a1-6)[Neu5Ac(a2-6)Gal(b1-4)GlcNAc(b1-2)Man(a1-3)][GlcNAc(b1-4)]Man(b1-4)GlcNAc(b1-4)GlcNAc
Summary of the method: as §1

[19] = biological target: Neu5Ac(a2-6)Gal(b1-4)GlcNAc(b1-3)Gal(b1-3)GlcNAc
Summary of the method: as §1

[20] = biological target: Neu5Ac(a2-6)Gal(b1-4)GlcNAc(b1-3)Gal(b1-4)GlcNAc
Summary of the method: as §1

[21] = biological target: Neu5Ac(a2-6)Gal(b1-4)GlcNAc(b1-3)Gal(b1-4)GlcNAc(b1-2)Man(a1-3)[Neu5Ac(a2-6)Gal(b1-4)GlcNAc(b1-3)Gal(b1-4)GlcNAc(b1-2)Man(a1-6)]GalNAc
Summary of the method: as §1

[22] = biological target: Neu5Ac(a2-6)Gal(b1-4)GlcNAc(b1-3)Gal(b1-4)GlcNAc(b1-3)Gal(b1-4)GlcNAc
Summary of the method: as §1

[23] = biological target: Neu5Ac(a2-6)Gal(b1-4)GlcNAc(b1-3)Gal(b1-4)GlcNAc(b1-3)Gal(b1-4)GlcNAc(b1-2)Man(a1-3)[Neu5Ac(a2-6)Gal(b1-4)GlcNAc(b1-3)Gal(b1-4)GlcNAc(b1-3)Gal(b1-4)GlcNAc(b1-2)Man(a1-6)]GalNAc
Summary of the method: as §1

[24] = biological target: Neu5Ac(a2-6)Gal(b1-4)GlcNAc(b1-3)Gal(b1-4)GlcNAc(b1-3)GalNAc
Summary of the method: as §1

[25] = biological target: Neu5Ac(a2-6)Gal(b1-4)GlcNAc(b1-3)Gal(b1-4)GlcNAc(b1-3)[Neu5Ac(a2-6)Gal(b1-4)GlcNAc(b1-3)Gal(b1-4)GlcNAc(b1-6)]GalNAc
Summary of the method: as §1

[26] = biological target: Neu5Ac(a2-6)Gal(b1-4)GlcNAc(b1-3)Gal(b1-4)GlcNAc(b1-6)[Gal(b1-3)]GalNAc
Summary of the method: as §1

[27] = biological target: Neu5Ac(a2-6)Gal(b1-4)GlcNAc(b1-3)Gal(b1-4)[Fuc(a1-3)]GlcNAc(b1-3)Gal(b1-4)[Fuc(a1-3)]GlcNAc
Summary of the method: as §1

[28] = biological target: Neu5Ac(a2-6)Gal(b1-4)GlcNAc(b1-3)GalNAc
Summary of the method: as §1

[29] = biological target: Neu5Ac(a2-6)Gal(b1-4)GlcNAc(b1-3)[Neu5Ac(a2-6)Gal(b1-4)GlcNAc(b1-6)]GalNAc
Summary of the method: as §1

[30] = biological target: Neu5Ac(a2-6)Gal(b1-4)GlcNAc(b1-6)GalNAc
Summary of the method: as §1

[31] = biological target: Neu5Ac(a2-6)Gal(b1-4)GlcNAc(b1-6)[Gal(b1-3)GlcNAc(b1-3)]Gal(b1-4)Glc
Summary of the method: as §1

[32] = biological target: Neu5Ac(a2-6)Gal(b1-4)GlcNAc(b1-6)[Gal(b1-3)]GalNAc
Summary of the method: as §1

[33] = biological target: Neu5Ac(a2-6)Gal(b1-4)GlcNAc6S
Summary of the method: as §1

Neu5Ac(a2-6)GalNAc = biological target: Neu5Ac(a2-6)GalNAc
Summary of the method: as §1

[34] = biological target: Neu5Ac(a2-6)GalNAc(b1-4)GlcNAc
Summary of the method: as §1

[35] = biological target: Neu5Ac(a2-6)GalNAc(b1-4)GlcNAc6S
Summary of the method: as §1

[36] = biological target: Neu5Ac(a2-6)GlcNAc(b1-4)GlcNAc
Summary of the method: as §1

B1: FliC (Pseudomonas aeruginosa), P72151 (protein)
chain: MALTVNTNIASLNTQRNLNASSNDLNTSLQRLTTGYRINSAKDDAAGLQISNRLSNQISGLNVATRNANDGISLAQTAEGALQQSTNILQRIRDLALQSANGSNSDADRAALQKEVAAQQAELTRISDTTTFGGRKLLDGSFGTTSFQVGSNAYETIDISLQNASASAIGSYQVGSNGAGTVASVAGTATASGIASGTVNLVGGGQVKNIAIAAGDSAKAIAEKMDGAIPNLSARARTVFTADVSGVTGGSLNFDVTVGSNTVSLAGVTSTQDLADQLNSNSSKLGITASINDKGVLTITSATGENVKFGAQTGTATAGQVAVKVQGSDGKFEAAAKNVVAAGTAATTTIVTGYVQLNSPTAYSVSGTGTQASQVFGNASAAQKSSVASVDISTADGAQNAIAVVDNALAAIDAQRADLGAVQNRFKNTIDNLTNISENATNARSRIKDTDFAAETAALSKNQVLQQAGTAILAQANQLPQAVLSLLR
- glycan array binding signal (z-score) [1]: -0.18
- glycan array binding signal (z-score) (Neu5Ac(a2-6)Gal(b1-4)Glc): -0.195
- glycan array binding signal (z-score) [2]: -0.162
- glycan array binding signal (z-score) [3]: -0.267
- glycan array binding signal (z-score) [4]: -0.121
- glycan array binding signal (z-score) [5]: -0.173
- glycan array binding signal (z-score) [6]: -0.066
- glycan array binding signal (z-score) [7]: -0.149
- glycan array binding signal (z-score) [8]: -0.119
- glycan array binding signal (z-score) [9]: 0.077
- glycan array binding signal (z-score) [10]: -0.11
- glycan array binding signal (z-score) [11]: -0.156
- glycan array binding signal (z-score) [12]: -0.124
- glycan array binding signal (z-score) [13]: -0.041
- glycan array binding signal (z-score) [14]: -0.153
- glycan array binding signal (z-score) [15]: -0.157
- glycan array binding signal (z-score) [16]: -0.061
- glycan array binding signal (z-score) [17]: -0.101
- glycan array binding signal (z-score) [18]: -0.173
- glycan array binding signal (z-score) [19]: -0.117
- glycan array binding signal (z-score) [20]: -0.237
- glycan array binding signal (z-score) [21]: 0.04
- glycan array binding signal (z-score) [22]: -0.192
- glycan array binding signal (z-score) [23]: 0.007
- glycan array binding signal (z-score) [24]: -0.193
- glycan array binding signal (z-score) [25]: -0.127
- glycan array binding signal (z-score) [26]: -0.192
- glycan array binding signal (z-score) [27]: -0.134
- glycan array binding signal (z-score) [28]: 1.07
- glycan array binding signal (z-score) [29]: -0.028
- glycan array binding signal (z-score) [30]: -0.231
- glycan array binding signal (z-score) [31]: -0.184
- glycan array binding signal (z-score) [32]: -0.061
- glycan array binding signal (z-score) [33]: 0.713
- glycan array binding signal (z-score) (Neu5Ac(a2-6)GalNAc): 1.71
- glycan array binding signal (z-score) [34]: -0.253
- glycan array binding signal (z-score) [35]: -0.076
- glycan array binding signal (z-score) [36]: -0.187

From the supplement of paper PMC8728848
